PubChem BioAssay AID1347428 (National Center for Advancing Translational Sciences (NCATS), 2020)
The whole screen tested about 91,000 compounds, of which about 290 (0.32%) were called active. Inconclusive results, whose numbers are uncertain, are shown with a selection of clear calls. The call rests on the fitted dose curve; in most records, active means well fitted inhibition curve with a large enough effect; inconclusive means small, poorly fitted or top-dose-only effect; inactive means no such curve, though single readings can be large or run the other way. A potency beside an inconclusive call is a rough fit, not a confirmed value.

Each compound was assayed against Single-stranded DNA cytosine deaminase (Homo sapiens) (UniProt Q9GZX7) (assay: Primary qHTS assay for inhibitors of Activation Induced Cytidine Deaminase (AID): AID signal). Details: AID deamination FRET fluorescence, UDG-coupled, 4 h; activity change, negative = inhibition: at 115 µM (top of the series).
Further: nearly all actives have a fitted effect of over 25% in size.
On the % scale 0 is the no-effect control and ±100 the full control effect; potency means the concentration at half of the fitted maximal effect; tags describe the fitted curve by direction and shape.

Chain of UniProt Q9GZX7 (Q9GZX7 whole entry, looked up): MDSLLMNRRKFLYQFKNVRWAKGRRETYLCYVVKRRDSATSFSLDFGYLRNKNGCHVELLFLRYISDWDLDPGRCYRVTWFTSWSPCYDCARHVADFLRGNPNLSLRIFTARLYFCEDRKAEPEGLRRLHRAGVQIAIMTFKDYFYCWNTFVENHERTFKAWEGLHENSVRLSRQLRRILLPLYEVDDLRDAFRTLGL

Which Potency does the source give for `Cc1ccc2c(c1)c(CC(=O)Nc1ccc(C)c(F)c1)c(C(=O)O)n2C` here?
Its Potency is inconclusive: 39.8 µM [inhibitor, full curve, poor fit].

For `O=C(c1ccc2c(c1)N(Cc1c(F)cccc1Cl)C(=O)c1ccccc1S2)N1CCOCC1`, which Potency is on record?
Its Potency is inconclusive: 79.4 µM [inhibitor, single point].

For `CC(CC#N)N1CCN(c2ncccn2)CC1` (centres undefined), which “activity change, negative = inhibition” value is on record?
Its value is inactive: -5.9%.

For `CC(NC(=O)c1cc2cc(Br)cc(Br)c2o1)C1CC2CCC1C2` (centres undefined), which “activity change, negative = inhibition” value is on record?
The value was inactive: -11.9%.

`COc1ccc(CCNC(c2ccc(F)cc2)c2nnc(-c3ccccc3Cl)o2)cc1OC` (centres undefined) was tested. Which Potency did it give?
Its Potency is inconclusive: 50.1 µM [inhibitor, partial curve, poor fit].

For `CCOC(=O)C1=C(C)NC(=O)NC1c1cn(-c2ccccc2)nc1-c1ccc(OC(C)C)cc1` (centres undefined), which Potency is on record?
Its Potency is active: 28.2 µM.

`O=C(CSc1nc(-c2cccs2)nc2cc(=O)[nH]n12)Nc1cccc(C(F)(F)F)c1` was tested. Which Potency did it give?
Its Potency is inconclusive: 39.8 µM [inhibitor, partial curve, poor fit].

How did the Potency turn out when `OCc1cnc(SCc2ccc(F)cc2)n1Cc1ccc(F)cc1` was run?
The Potency was inconclusive: 3.55 µM [inhibitor, full curve, poor fit].

For `COc1ccc(C)cc1NC(=O)c1cc(S(=O)(=O)N2CCC(C)CC2)cn1C`, which Potency is on record?
Its Potency is inconclusive: 39.8 µM [inhibitor, single point].

Which “activity change, negative = inhibition” value does the source give for `Cc1cccc(N2CCN(C(=O)c3c(C)oc4ncnc(N5CCOCC5)c34)CC2)c1C` here?
Its value is inactive: -2.84%.

`CC1CCCN(c2c(S(=O)(=O)c3ccccc3)cnc3ccc(Cl)cc23)C1` (centres undefined) was tested. Which Potency did it give?
The Potency was inconclusive: 39.8 µM [inhibitor, single point].

For `Cc1ccc(Cl)cc1-n1ncc2c(NCc3ccc(F)cc3)ncnc21`, which Potency is on record?
Its Potency is inconclusive: 44.7 µM [inhibitor, partial curve].

For `COc1ccc(OCCn2c(C(C)Oc3ccccc3)nc3ccccc32)cc1` (centres undefined), which Potency is on record?
Its Potency is inconclusive: 22.4 µM [inhibitor, full curve].

Which “activity change, negative = inhibition” value does the source give for `N#Cc1nc(COc2ccc3c(c2)OCO3)oc1NC1CCCCC1` here?
The value was inactive: -5.4%.

With `CCSc1ncc(Cl)c(C(=O)N(Cc2ccc(N(C)C)cc2)Cc2ccco2)n1` as the compound, how does the Potency read?
The Potency was inconclusive: 20 µM [inhibitor, full curve, poor fit].

`COc1cc(NS(=O)(=O)c2cccc(Cl)c2C)cc2sc(NC(C)=O)nc12` was tested. Which “activity change, negative = inhibition” value did it give?
Its value is inactive: 8.4%.

Which Potency does the source give for `CCCCOc1ccc(Cn2c(=O)oc3ccc(C)cc32)cc1` here?
The Potency was inconclusive: 39.8 µM [inhibitor, partial curve, poor fit].

Which “activity change, negative = inhibition” value does the source give for `CSc1ccc(/C=N/Nc2ccc(F)cc2F)cc1` here?
The value was inactive: -19.2%.

For `N#Cc1nc(-c2ccc(S(=O)(=O)N3CCCC3)cc2)oc1N1CCC(Cc2ccccc2)CC1`, which “activity change, negative = inhibition” value is on record?
The value was inactive: -10.8%.
